The campaign covered roughly 360,000 compounds. About 420 (0.12%) were called active. The inconclusive results got no clear call from the source; some entries with a clear call stand among them for comparison. Cut-off read from the data, not from the text of the source: active = inhibition above about 30%; inconclusive = no clear call, values can overlap the other calls; inactive = below that.
target: Lethal factor (Bacillus anthracis) (UniProt P15917); experiment: anthrax lethal factor cleavage blockers – biochemical, multiplex microsphere, MLPCN library, primary screen (AID 588501); settings: multiplex microsphere protease cleavage assay, LF; at 10 µM; active compounds read high; note: plate controls were buffer without enzyme for full effect and enzyme alone for no effect
Sequence of UniProt P15917 (P15917 whole entry, looked up): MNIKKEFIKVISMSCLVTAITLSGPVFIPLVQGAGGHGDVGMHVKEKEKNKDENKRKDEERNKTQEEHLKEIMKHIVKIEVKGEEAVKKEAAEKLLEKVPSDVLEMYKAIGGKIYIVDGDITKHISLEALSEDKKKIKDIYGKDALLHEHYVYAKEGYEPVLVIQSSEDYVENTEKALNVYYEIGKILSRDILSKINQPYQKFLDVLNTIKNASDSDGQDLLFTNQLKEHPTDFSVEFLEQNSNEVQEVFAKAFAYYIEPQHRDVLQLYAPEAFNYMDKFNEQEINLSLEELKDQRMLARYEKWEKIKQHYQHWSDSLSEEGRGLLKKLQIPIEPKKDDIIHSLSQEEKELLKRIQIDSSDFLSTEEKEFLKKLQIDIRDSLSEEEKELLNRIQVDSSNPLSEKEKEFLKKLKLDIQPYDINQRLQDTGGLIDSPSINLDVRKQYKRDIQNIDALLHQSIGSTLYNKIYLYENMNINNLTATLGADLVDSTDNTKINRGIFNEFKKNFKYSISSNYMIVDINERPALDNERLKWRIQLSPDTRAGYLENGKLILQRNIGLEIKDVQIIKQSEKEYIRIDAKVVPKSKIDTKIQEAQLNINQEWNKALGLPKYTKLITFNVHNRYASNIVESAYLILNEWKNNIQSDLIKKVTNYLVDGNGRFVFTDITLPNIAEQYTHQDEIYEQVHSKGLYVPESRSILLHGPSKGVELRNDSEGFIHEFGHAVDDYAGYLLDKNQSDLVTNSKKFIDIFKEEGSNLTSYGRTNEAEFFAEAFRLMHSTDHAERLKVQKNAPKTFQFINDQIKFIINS

SMILES | inhibition
Cc1ccc(S(=O)(=O)N2CCOCC2)cc1C(=O)Nc1cccc(C(=O)NC2CC2)c1 | inconclusive: 2%
O=C(CC1C(=O)NCCN1C(=O)Nc1ccccc1)Nc1cccc(Cl)c1 (stereo not given) | inactive: 3.7%
O=C(Cc1cccs1)Nc1ccc(NC(=O)c2ccco2)cc1 | inconclusive: -24.4%
Cc1ccc2nc(C)c3c(c2c1)N(c1ccc(F)cc1)CC3 | inconclusive: -32.5%
COc1ccc(CC(=O)NCc2ccc(Cl)cc2)cc1S(=O)(=O)N1CCOCC1 | inconclusive: 3.7%
Cc1ccc(CNC(=O)C2CCC(=O)N2Cc2ccccc2Cl)cc1 (stereo not given) | inactive: 2.3%
Cc1ccc(S(=O)(=O)NC(=O)Nc2cccc(C)n2)cc1 | inconclusive: -35.6%
CCN(CC)CCCNC(=O)C1CCN(C(=O)c2oc3cc4sc(N(C)C)nc4cc3c2C)CC1 | inactive: -2.4%
O=C(CCN1C(=O)c2ccccc2S1(=O)=O)NCc1ccc(F)cc1 | inconclusive: -5.3%
COCCNC(=O)C1(C)CCCN(C(=O)c2ccc(F)cc2Cl)C1 (stereo not given) | inactive: -3.9%
CC1CCN(C(=O)c2cc3c(ccc4ccccc43)o2)CC1 | inconclusive: -0.8%
CCC1(c2ccc(F)cc2)NC(=O)N(CC(=O)N2CCN(S(=O)(=O)c3ccc(Cl)cc3)CC2)C1=O (stereo not given) | inconclusive: -3.2%
COc1cc(-c2nc3n(n2)C(c2ccc(F)cc2)C2=C(CCCC2=O)N3)cc(OC)c1OC (stereo not given) | inconclusive: -20.9%
COc1cc(N2CCCC2)c(OC)cc1/C=C1/NC(=S)NC1=O | inconclusive: -1.2%
Cc1ccccc1NC(=O)NC1(C(=O)NCC2CCCO2)CCCCC1 (stereo not given) | inactive: -11.6%
O=C(CCCOc1ccccc1)Nc1nccs1 | inconclusive: -5.6%
c1ccc2c(c1)CCCn1nnnc1-2 | inconclusive: 6.9%
CN(C)c1ccc(C(=O)N/N=C/c2cc(Br)cc(Br)c2O)cc1 | inconclusive: 0.4%
O=C(NCc1ccc(OC(F)(F)F)cc1)c1cccc2c1C(=O)c1ccc(N3CCCC3)cc1S2(=O)=O | inactive: 3.7%
COc1ccc(-c2nn(-c3ccccc3)cc2C(=O)N2CCN(S(=O)(=O)c3ccccc3C#N)CC2)cc1 | inconclusive: 1.9%
CCN(CC)Cc1c(O)c(Cl)cc2c(C)c(C)c(=O)oc12 | inconclusive: -12.4%
O=[N+]([O-])c1ccc(CN2CC(N3CCC(Cc4ccccc4)CC3)CS2(=O)=O)cc1 (stereo not given) | inactive: 0.1%
Cc1csc(SCC(=O)Nc2nccs2)n1 | inconclusive: -1.8%

SMILES | inhibition
CN(C)C(CNc1ccc(S(C)(=O)=O)cc1[N+](=O)[O-])c1ccccc1 (stereo not given) | inactive: -4.6%
Cc1oc(C)c(S(=O)(=O)NCc2cccs2)c1C(=O)O | active: 37.6%
Cc1ccc(OCCNc2ccc(S(=O)(=O)N3CCCC3)cn2)cc1 | inconclusive: -7.8%
CCN(CC(=O)Nc1c(F)cccc1F)C(=O)c1csc2c1CCCC2 | inconclusive: 4.6%
COc1cccc(C(=O)NN=C2CCCC2)c1 | inconclusive: -8.6%
COc1cccc(Nc2nc(N)nc(C(F)(F)F)n2)c1 | inconclusive: -17.1%
Cc1cccn(Cc2c(Cl)cccc2Cl)c1=O | inconclusive: 1%
CC(C)CCNC(=O)c1cn(CC(C)C)c(=O)c2c1c1ccccc1n2C | inactive: 5%
COC(=O)c1c(NC(=O)c2ccccc2[N+](=O)[O-])sc2c1CC(C)(C)NC2(C)C | active: 33.6%
CCCNc1c(N)c(=O)c1=O | inconclusive: -5.2%
COc1ccc2oc(C(=O)OCC(=O)NC(C)(C#N)C3CC3)c(C)c2c1 (stereo not given) | inconclusive: -2.7%
COc1cccc2c1NC(C(=O)O)C1CC=CC21 (stereo not given) | inconclusive: -3%
Cn1c(CSCCOc2ccccc2)n[nH]c1=S | inconclusive: -26%
CCC(C)N(C(=O)CSc1nnc(NC(C)C)s1)C1CCS(=O)(=O)C1 (stereo not given) | inconclusive: -3.3%
O=C(CN1C(=O)c2ccccc2C1=O)NCC(=O)Nc1ccccc1 | inactive: 1.3%
O/N=C(/c1ccccc1)c1cc2cc(Br)cc(Br)c2o1 | active: 30.5%
CCCC(=O)Nc1cc(-c2nn(C)c(=O)c3ccccc23)ccc1OC | inconclusive: -32.1%
COc1ccc(N(CC(=O)NCCSCc2cccc(Cl)c2)S(C)(=O)=O)cc1 | active: 34.3%
O=C(CN1CCN(S(=O)(=O)c2ccccc2)CC1)Nc1ccnn1C1CCCC1 | inconclusive: -0.8%
Cc1cc(C)nc(SCc2ccc(Cl)cc2)n1 | active: 31.7%
CC(C)NC(=O)Nc1n[nH]c(Nc2ccc(Cl)cc2)n1 | inconclusive: -9.8%
O=C(NCCCn1ccnc1)C(=O)NCC1OCCN1S(=O)(=O)c1ccc(Cl)cc1 (stereo not given) | inactive: -10%
O=C(O)CCC(=O)Nc1nc2ccccc2s1 | inconclusive: -5.5%

SMILES | inhibition
COc1ccc(N(CC(=O)NCc2ccccc2)S(=O)(=O)c2c(C)noc2C)cc1 | inconclusive: -13%
O=C(c1cccs1)N1C[C@@H](O)[C@H](n2cc(-c3ccc(F)cc3)nn2)C[C@@H]1c1ccccc1 | inactive: 5.1%
C=CCn1c(-c2cc(-c3ccccc3)sc2N)n[nH]c1=S | inconclusive: -31%
CN(C)S(=O)(=O)c1cc(NC(=O)CN2CCCc3ccccc32)ccc1Cl | inconclusive: -47.9%
COCCN1C(=O)N[C@@H](c2ccccc2)[C@H](C(=O)OC)[C@H]1C | inactive: 1.2%
O=C(NC1CCCCC1)C1CCN(c2nnnn2-c2ccccc2)CC1 | inactive: 3%
COc1ccc(OC)c(/C=C/C(=O)N2CCN(S(=O)(=O)c3cc(C)ccc3C)CC2)c1 | inconclusive: -4.5%
O=S1(=O)N[C@@H](Cc2ccccc2)COc2ccc(Cl)cc21 | inactive: 3.7%
COc1ccc(N2CCN(C(=O)COC(=O)CNC(=O)c3ccc(C)cc3)CC2)cc1 | inconclusive: 1.5%
CCN(CC)c1ccc(/C=C/c2cc(-c3ccccc3)c3ccccc3n2)cc1 | inconclusive: -24%
O=C(CC1OC(=O)c2ccccc21)Nc1cc(Cl)ccc1N1CCCC1 (stereo not given) | inconclusive: 3%
CCCN1CCCc2ccccc21 | inconclusive: 19.6%
COc1cccc(C(=O)NNC2=C(C(=O)C(F)(F)F)CCC2)c1 | inconclusive: -15.1%
CC(NC(=O)c1cc2c(cc1Cl)N1CCCCCC1=NS2(=O)=O)c1ccc(S(N)(=O)=O)cc1 (stereo not given) | inconclusive: -6.5%
COc1ccccc1C(C)NC(=O)CCC(=O)N1CCN(S(=O)(=O)c2ccc(Cl)cc2)CC1 (stereo not given) | inconclusive: -2.8%
CCOC(=O)c1cnc(SC2CC(=O)N(c3ccc(OC)c(OC)c3)C2=O)nc1N (stereo not given) | inconclusive: 9.7%
Cn1c(-c2ccc(Cl)cc2)cnc1N | inconclusive: 6.7%
O=C(Nc1cc(=O)c2ccccc2o1)N1CCOCC1 | inconclusive: 6.4%
Clc1ccc(OCc2nnc(SCc3nc4ccccc4[nH]3)n2Cc2ccco2)cc1 | inconclusive: -11.7%
O=C(COC(=O)CCc1ccccc1)NCc1ccccc1 | inconclusive: -1.2%
CN1CCN(C(=O)C(=O)c2cn(CC(=O)N3CCCCCC3)c3ccccc23)CC1 | active: 35.8%
Cc1c(C)c2ccc(OCC(=O)N(C)C3CCS(=O)(=O)C3)c(C)c2oc1=O (stereo not given) | inactive: -2.3%
CC(=NNC(=S)N1CC2CCC(CC2)C1)c1ccccn1 | active: 51.9%

SMILES | inhibition
O=C(Cn1c(=O)n(-c2ccccc2)c(=O)c2sccc21)NCc1ccccc1 | inactive: -3.8%
Cc1nn(-c2ccccc2)c(C)c1NC(=O)COC(=O)c1ccc(Cl)c(S(N)(=O)=O)c1 | inconclusive: -1.4%
O=C(CCNC(=O)c1ccc(Br)cc1)Nc1cccc(S(=O)(=O)N2CCCCC2)c1 | inconclusive: 3.9%
CC1Nc2ncnc(N3CCc4ccccc4C3)c2N(Cc2ccccc2)C1=O (stereo not given) | inactive: 3.6%
Cc1cccc(NC(=O)c2sccc2-n2cccc2)c1C | inactive: -4.4%
FC(F)(F)c1cccc(NC(=S)Nc2ccc(Cl)c(Cl)c2)c1 | inconclusive: -16.9%
Brc1ccc(-c2nnc3c4ccccc4nc(N4CCOCC4)n23)cc1 | inconclusive: -14.9%
NC(=O)C1(N2CCCCC2)CCN(C(=O)NC23CC4CC(CC(C4)C2)C3)CC1 | inconclusive: -17.6%
CC(=O)C(Cc1ccccc1)NC(=O)COc1ccc2c(c1)OCO2 (stereo not given) | inactive: 8%
Cc1cccc(C)c1NC(=O)CSc1nnc([C@H](C)NC(=O)OC(C)(C)C)o1 | inconclusive: -16.4%
CCN(CC(=O)Nc1ccccc1C(F)(F)F)C(=O)Cc1sc(C)nc1-c1ccc(F)cc1 | inconclusive: -6.6%
CC1S/C(=N/N=C/c2cccs2)NC1=O (stereo not given) | inactive: 1.5%
CC1CCCCN1C(=O)COc1ccc(S(=O)(=O)N2CCCC2)cc1[N+](=O)[O-] (stereo not given) | inconclusive: 6.8%
COc1ccc(OCCOC(=O)CNC(=O)c2cccc(C)c2)cc1 | inconclusive: -24.5%
CN1CCN(c2nc3c(c(=O)[nH]c(=O)n3C)n2Cc2ccc([N+](=O)[O-])cc2)CC1 | inactive: -6.3%
CCN(CC)C(=O)C1=C(C)N(Cc2ccc(OC)cc2)C(=O)C(CC(=O)NCCN2CCOCC2)C1 (stereo not given) | inactive: 1.8%
CC(=O)Nc1cccc(Oc2nc(-c3ccccn3)nc3ccccc23)c1 | inconclusive: -29.3%
Cc1ccccc1C(=O)Nc1ccnn1C1CCN(Cc2cccnc2)CC1 | inconclusive: -7.7%
Cc1cc(Br)cn2c(Cc3ccsc3)c(-c3cccc(Br)c3)nc12 | inactive: 0.1%
S=C(Nc1ccc2snnc2c1)N1CCN(c2ccccn2)CC1 | inactive: 1.4%
CC(=O)N/C(=C\c1ccccc1)C(=O)OCC(=O)NC(=O)c1ccccc1 | inconclusive: -6.2%

— PubChem BioAssay AID588501 (NMMLSC, 2011)
